The RNAGym collection of RNA variant scans (doi:10.7554/elife.90254)
Read counts are not given, so values of variants with three or more changes are uncertain.

B1: LINE1-mini (parent)
chain: GGCAGAGCUCAACACAGCGUGGCAAAGUGGCUGUGGCUAGACUGCC

Variants of: B1
Test: self-cleavage, relative activity (ratio to wild type); higher = more cleavage; in vitro, sequencing; the parent is a self-cleaving ribozyme
With G2C C31U G44U the self-cleavage was 0.02. Work on G2C G5C G29U C45U yielded a self-cleavage of 0.04. In the case of G2C G7U G19U C42U, the self-cleavage is reported as 0.04. G2C G17U A26C U28G G35U C37A gave a self-cleavage of 0. For G2U A4G U9G U28A, the self-cleavage was 0.02. G2C C10U A24C showed a self-cleavage of 0.01. Variant G2C C15A C23U has a self-cleavage of 0.02. G2C C18A G21U U34C G35C showed a self-cleavage of 0.03. G2C C10U C45A showed a self-cleavage of 0.08. Variant G2C C10G G35C has a self-cleavage of 0.01. With G2C C13G A14C A25U A26C G29U U43C the self-cleavage was 0.02. Variant G2U A4G G5U G21C C46U has a self-cleavage of 0.02. For G2C U9C A14C G19A, the self-cleavage was 0.02. With G2C G7A U9G G21A G22C the self-cleavage was 0.09. In the case of G2C C18U A25C C37A, the self-cleavage is reported as 0.1. Work on G2C G27C G30C C37U C46U yielded a self-cleavage of 0.02. In the case of G2U A4U G21A A41U C42A, the self-cleavage is reported as 0.12. G2C G30U C42U G44C showed a self-cleavage of 0.02. Variant G2C G27U U34A C42U has a self-cleavage of 0.02. Work on G2C U9A G29C yielded a self-cleavage of 0.03. G2C C10U A24G A26U U28G gave a self-cleavage of 0.01. G2U A4C A6U C18U A39G showed a self-cleavage of 0.05. With G2C C18G G40A C42U C45A the self-cleavage was 0.04. For G2C G5C A25C G30C, the self-cleavage was 0.03. For G2C G21C C31A C46U, the self-cleavage was 0.17. For G2U A4U G21A, the self-cleavage was 0.08. Variant G2C G29U C31G has a self-cleavage of 0.02. For G2C G21C A26U, the self-cleavage was 0.05. G2C G5C G29U G30A C37G gave a self-cleavage of 0.03. Work on G2U A4G G17U G29A G30A G44C yielded a self-cleavage of 0.06. G2U A6C A16G G30U gave a self-cleavage of 0.06. In the case of G2U A4C C8G C37A, the self-cleavage is reported as 0.03. G2C U38C C42G showed a self-cleavage of 0.21. With G2C G27A G30U G44U C45U C46U the self-cleavage was 0.04. Work on G2C C15U U28G C37U G40C yielded a self-cleavage of 0.02. For G2C U9C C23A A24U G27U, the self-cleavage was 0.02. G2C G5U U32A U38A gave a self-cleavage of 0.01. In the case of G2U A4U A11U A12C U32A, the self-cleavage is reported as 0. Variant G2C G27A U34G has a self-cleavage of 0.01. G2C U9G C23U U32A gave a self-cleavage of 0.04. With G2U A4C U9C C13U A26G the self-cleavage was 0.01. G2C G17A G40C U43A gave a self-cleavage of 0.05. G2C G17U G33A U38A gave a self-cleavage of 0.24. In the case of G2C G17U G33C, the self-cleavage is reported as 0.03. Work on G2C C23U G27U G29C U34G G35C yielded a self-cleavage of 0.16. G2C G7A U34C showed a self-cleavage of 0.04. G2C U9A G19A gave a self-cleavage of 0.02. Variant G2U A4C G17U A24U C31A C37G has a self-cleavage of 0.17. G2C G5U C10A A16G gave a self-cleavage of 0.01. Variant G2C G7U C15A U20C G30U G35A has a self-cleavage of 0.03. With G2C C13A A26U the self-cleavage was 0.01. For G2C U20C U28A C37U, the self-cleavage was 0.04. For G2C G5A C10G G35U G44A, the self-cleavage was 0.02. With G2C C15G C23U A26G C42G the self-cleavage was 0. G2C G36A A41U U43A gave a self-cleavage of 0.03. G2C G22U C23A C42U showed a self-cleavage of 0. With G2C C10G G30U the self-cleavage was 0.01. Work on G2U A4C C8G G44A yielded a self-cleavage of 0.01. In the case of G2C U9G C15G G17C, the self-cleavage is reported as 0.02. For G2C G17U U28C, the self-cleavage was 0.04. For G2U A4U G33U C46U, the self-cleavage was 0. G2C G7U C15U G17U C18U showed a self-cleavage of 0.04. G2C G29A C37A gave a self-cleavage of 0.02. In the case of G2C G33U C37A, the self-cleavage is reported as 0.03. Work on G2U A6C G7U A24U G35A C46U yielded a self-cleavage of 0.03. In the case of G2U A4G A26C U28A, the self-cleavage is reported as 0.04. Variant G2C U20A G21C has a self-cleavage of 0.1. With G2C G30A U43C the self-cleavage was 0.05. In the case of G2C G5C A12U U20A A26G C45U, the self-cleavage is reported as 0.01. Work on G2C G36C C37U yielded a self-cleavage of 0. In the case of G2U A4U G29U, the self-cleavage is reported as 0.07. Variant G2C G5A G30A C45A has a self-cleavage of 0.03. Work on G2C C18A G35U yielded a self-cleavage of 0.07. G2U A6C G21C G22A G27U gave a self-cleavage of 0.03. In the case of G2C U28C C31U G44U, the self-cleavage is reported as 0.03. In the case of G2C U9C C10A A12C C18A A41G, the self-cleavage is reported as 0. G2C C18A A24G A26G showed a self-cleavage of 0.01. G2C C31G G33C C37A gave a self-cleavage of 0.05. Work on G2C G5U U20A yielded a self-cleavage of 0.01. G2C C10G G21U C46G gave a self-cleavage of 0.03. G2C G19A U38C C46U gave a self-cleavage of 0.02. With G2C U20G C31U U34C the self-cleavage was 0. With G2C G5U G40U the self-cleavage was 0.1. With G2C U9G C13G the self-cleavage was 0.02.
